Here are results for 1 molecule from patent US20200179510A1, “LOW DENSITY LIPOPROTEIN RECEPTOR RELATED PROTEIN 5 INHIBITION SUPPRESSES TUMOR FORMATION” (YALE UNIVERSITY, priority 2017, published 2020).

For test [1], the system named is MC38 cells. Put plainly: MC38 cell growth in culture. Format: cell-based, mouse.
Test [2] relates to Wnt reporter gene TOPFlash. As to the kind of experiment: Wnt reporter gene (TOPFlash) assay in HEK293 cells. To be noted: Wnt3A CM, 5F8 120 nM (FIG. 1E). It counts as cell-based. On the procedure:
The Stat5 reporter assays were done in HEK293T cells for activated JAK1-induced activity or in those stably expressing JAK3, IL2/15Rβ and the common receptor γ subunit for IL15 induced activity. Cells were seeded at 8×10^4 cells per well in 48 well plate. The next day, cells were transfected by Lipofectamine 2000 (Invitrogen) with the pGL4.52-STAT5-Luciferase (Promega) and tagRFP (internal control) plasmids together with other plasmids expressing genes of interest. The total amount of plasmid was kept at 125 ng per well. The cells were added 24 hours after transfection with IL15/IL15Rα-Fc complex or mock. Six hours later, the cells were lysed and subjected to RFP fluorescence and luciferase luminescence measurement using an Envision Multilabel plate reader. The reporter gene activity is shown after being normalized against RFP readings. The LEF reporter assay was carried out in HEK293 cells that were transfected with the TOPFlash and GFP plasmids. The rest is the same as above. The reporter gene activity is shown after being normalized against GFP readings.
A functional mouse monoclonal anti-DKK2 antibody (5F8) was developed to specifically target and neutralize DKK2, but to not cross react with DKK-1. […]
(A reporter such as luciferase makes a cellular process visible.)

For test [3], the system named is leukocytes in Peyer's patches. As to the kind of experiment: Flow cytometry of leukocytes in Peyer's patches of APC^Min/+ mice. To be noted: one dose 8 mg/kg i.p., 24 hours. Format: in vivo, mouse. As for the experimental part: (§1) Cells in single cell suspension were fixed with 2% PFA (Santa-Cruz sc-281692). After washing with a Flow Cytometry Staining Buffer (eBioscience 00-4222-26), cells were stained with antibodies for cell surface markers for 1 hour on ice in the dark. For staining of intracellular proteins, the cells were washed and resuspended in the Permeabilization Buffer (BD 554723) and stained by antibodies in the Permeabilization Buffer for 1 hour on ice in the dark. The cells were then pelleted and resuspended in the Flow Cytometry Staining Buffer for flow cytometry analysis.
On the technique in general: In flow cytometry, cells or beads pass a laser one at a time.

Test [4] has as its system primary mouse NK cells. As to the kind of experiment: IL-15-cultured primary mouse NK cells (flow cytometry, Western). It counts as cell-based. The following applies: 5F8, NK cells alone. As for the experimental part:
as §1
Mouse primary NK and CD8+ T cells were isolated from the spleens by using the NK cell and CD8+ T cell isolation kits according to the manufacturer's instructions (Miltenyi Biotec #130-090-864 and #130-104-075), respectively. Primary NK cells were cultured in RPMI-1640 (Gibco, 11875-093) supplemented with 10% FBS, penicillin (100 U/ml), streptomycin (100 μg/ml), 2-mercaptoethanol (500 μM) and HEPES (10 mM) at 37° C. supplemented with 5% CO2 in the presence of recombinant murine IL-15 (50 ng/ml) for 24 hours before treatment with DKK2, CHIR99021, or WNT3A. CD8+ T cells were cultured in the same culture medium and condition as NK cells, but supplemented with IL-15 (200 ng/ml) and IL-15 Rα (1 μg/ml recombinant Mouse IL-15 receptor alpha Fc chimera Protein from R&D) for 96 hours before DKK2 treatment. […]

B1: 5F8: Mouse monoclonal antibody to DKK2, raised against a synthetic peptide of human DKK2 (SEQ ID NO: 21); chains SEQ ID NOs: 22, 23 (antibody, V domains shown)
VH: GAELVRPGASVKLSCKASGYSFTNYWMNWVKQRPGQGLEWIGMIHPSDSETRLNQKFKDKATLTVDKSSSTAYMQLSSPTSEDSAVYYCAREGRLGLRSYAMDYWGQGTSVTVSS
VL: PSSLAMSVGQKVTMSCKSSQSLLNSSNQKNYLAWYQQKPGQSPKLLVYFASTRESGVPDRFVGSGSGTDFTLTITSVQAEDLADYFCQQHYITPLTFGAGTKLE
B1: the “growth of MC38 cells in culture” value in test [1] is recorded as “did not affect the growth of MC38 cells in culture”. Besides, the “DKK2-mediated inhibition of Wnt reporter gene activity induced by Wnt3A” value in test [2] is on record as “antagonizes DKK2-mediated inhibition of Wnt reporter gene activity”. Besides, in test [3], the “populations of T lymphocytes in Peyer's patches” value is listed as “without affecting the populations of T lymphocytes cells”. In addition, the “granzyme B-positive CD8+ cells in Peyer's patches” value in test [3] (vs control IgG) was “markedly increased granzyme B-positive CD8+ cells”. Besides, the “granzyme B expression in NK cells cultured alone” value in test [4] is recorded as “little effects on granzyme B expression”.
